In PubChem BioAssay AID2675 (National Center for Advancing Translational Sciences (NCATS), 2010):
Several values for one entry are separate records, joined by “and”; a condition that tells them apart may be missing. Identical values can stand only once. In all, about 280,000 compounds went through this assay and about 100 (0.036%) were called active. Inconclusive results, whose numbers are uncertain, are shown with a selection of clear calls. Calls follow the shape of the dose curve; as a rule, active = well fitted inhibition curve with a large enough effect in the signal ratio, with a control signal flat (not every such curve was filed as active); inconclusive = small, poorly fitted or top-dose-only effect, or effect the other way, or a change in a side signal; inactive = no such curve, though single readings can be large or run the other way; the % refers to the signal ratio. Where the call is inconclusive, the potency comes from a doubtful curve fit. A note “side channel” means that the fit belongs to a control or component signal, not to the main read-out.

Molecular target: Muscleblind-like protein 1 (Homo sapiens) (UniProt Q9NR56)
Chain of UniProt Q9NR56 (Q9NR56 whole entry, looked up): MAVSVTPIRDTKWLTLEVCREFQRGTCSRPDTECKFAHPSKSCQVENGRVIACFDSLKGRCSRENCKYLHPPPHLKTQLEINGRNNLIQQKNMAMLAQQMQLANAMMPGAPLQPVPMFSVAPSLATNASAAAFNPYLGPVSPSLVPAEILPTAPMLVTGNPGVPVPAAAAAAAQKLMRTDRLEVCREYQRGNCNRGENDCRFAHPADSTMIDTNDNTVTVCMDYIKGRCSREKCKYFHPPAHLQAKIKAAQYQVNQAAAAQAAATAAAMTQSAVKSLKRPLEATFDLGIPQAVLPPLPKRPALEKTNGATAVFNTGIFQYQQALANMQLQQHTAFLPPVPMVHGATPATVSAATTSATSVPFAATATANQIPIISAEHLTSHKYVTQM
Assay: qHTS Assay for Inhibitors of MBNL1-poly(CUG) RNA binding
Conditions: TR-FRET MBNL1-His/biotin-(CUG)12 binding, 665/545 ratio; activity change, negative = inhibition: at 57.5 µM (top of the series)
Outline: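 MBNL1-His + Biotin-(CUG)12, cpd titration 92 nM–58 uM; Tb anti-His Ab 0.055 ng/ul, SA-XL665 5 nM (final); 60 min RT; ratiometric 665/545 nm, Ex 340 nm; normalized to buffer and full-complex controls.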
% is scaled to controls: 0 for no effect and ±100 for the full control effect; potency is read from the fitted curve at half-maximal effect; tags tell the direction and shape of the fitted curve or compound fluorescence and quenching.

Row | SMILES | Potency | activity change, negative = inhibition
1 | c1ccc(C2=NN(c3ccccc3)CC2)cc1 | inactive | –
2 | Cn1nc([N+](=O)[O-])nc1Sc1nnnn1-c1ccc(C(=O)O)cc1 | inconclusive: 14.1 µM [quencher, side channel, partial curve] | –
3 | Cc1cc(C)nc(Oc2ccc([N+](=O)[O-])cc2)n1 | inconclusive: 11.2 µM [quencher, side channel, partial curve] | –
4 | S=C(NCc1ccco1)Nc1cccc(Cl)c1 | inactive | –
5 | Cc1ccc(-c2nn(-c3ccccc3)cc2/C=N/NC(=O)CSc2nnc(C)n2-c2ccccc2)cc1 | inactive | –
6 | O=C(c1ccc2c(c1)[nH]c(=S)n1c3ccccc3nc21)N1CCN(c2ncccn2)CC1 | inactive | –
7 | N#Cc1c(N)nc(SCC(=O)NCCc2ccccc2)c(C#N)c1-c1cccs1 | inactive | –
8 | O=C(Nc1ccccc1C(=O)NCc1cccnc1)c1cccc([N+](=O)[O-])c1 | inconclusive: 25.1 µM [quencher, side channel, partial curve] | –
9 | CN(C)c1ccc(/C=N/NC(=O)CCCO)cc1 | inconclusive: 28.2 µM [quencher, side channel, single point] | –
10 | CC(C)NC(=O)CSc1nc(Cc2cccs2)nc2ccccc12 | inconclusive: 39.8 µM [quencher, side channel, single point] | –
11 | NC(=O)c1ccc(Oc2ccc3c(c2)CCC3)c([N+](=O)[O-])c1 | inconclusive: 14.1 µM [quencher, side channel, partial curve] | –
12 | C=CCN1C(=O)C2(OCCCO2)c2cc(CCCC)ccc21 | inconclusive: 0.708 µM [fluorescent, side channel, single point] | –
13 | CC1CCCC(C)N1C(=O)Cn1cnc2cc([N+](=O)[O-])ccc2c1=O (stereo not drawn) | inconclusive: 12.6 µM [quencher, partial curve] | –
14 | Cc1ccc(NC(=O)COc2cccnc2[N+](=O)[O-])cc1S(=O)(=O)N1CCOCC1 | inconclusive: 17.8 µM [quencher, side channel, partial curve] | –
15 | CC1(C)Cc2ccccc2C(/C(C#N)=N/O)=N1 | inconclusive: 20 µM [quencher, side channel, single point] | –
16 | O=C(Nc1nnc(SCc2ccccc2Cl)s1)c1cccc([N+](=O)[O-])c1 | – | inconclusive: 8.08% [phenotype inactive]
17 | c1ccc(C(c2ccccc2)N2CCN(c3ccc4ccccc4n3)CC2)cc1 | inactive | –
18 | CCn1c(=O)n(CCOC)c(=O)c2c3c(sc21)CCCC3 | inconclusive: 79.4 µM [inhibitor, single point] | –
19 | CCOC(=O)CN1C(=O)C(=O)c2cc(C)ccc21 | inconclusive: 20 µM [quencher, side channel, partial curve] | –
20 | CC1CCCN(c2ncnc3c2cnn3-c2ccccc2)C1 (stereo not drawn) | inactive | –
21 | CCCCC[n+]1ccn(C2=C([O-])c3ccccc3C(=O)/C2=N\S(=O)(=O)c2ccc(Cl)cc2)c1 | inconclusive: 0.501 µM [quencher, side channel, full curve] | –

Row | SMILES | Potency | activity change, negative = inhibition
22 | COc1ccc(CCn2c(-c3ccc(C(C)(C)C)cc3)n[nH]c2=S)cc1OC | inactive | –
23 | OCCC1CN(CC2CCCCC2)CCN1CC1CCCCC1 (stereo not drawn) | inconclusive: 3.98 µM [fluorescent, side channel, single point] | –
24 | Cc1ccc(-c2cn(-c3ccccc3)c(=S)[nH]2)cc1C | inactive | –
25 | Cc1cccc(C(=O)N/N=C/c2ccc3c(c2)OCO3)n1 | inconclusive: 35.5 µM [quencher, side channel, single point] | –
26 | CN(CCO)c1cc(NCCCN2CCC(Cc3ccccc3)CC2)c2nonc2c1[N+](=O)[O-] | inconclusive: 1.58 µM [quencher, side channel, full curve] | –
27 | CCN(CC)c1ccc(/C=C/c2cccc[n+]2C)c(OC)c1 | inconclusive: 8.91 µM [quencher, side channel, partial curve] | –
28 | O=C1c2ccccc2C(=O)N1CCSc1nncs1 | inconclusive: 28.2 µM [quencher, side channel, single point] | –
29 | Cc1ccc(Nc2nc(CSc3nnnn3-c3ccccc3)cc(=O)[nH]2)cc1 | inconclusive: 100 µM [inhibitor, single point] | –
30 | Cc1ccn(-c2ccc([N+](=O)[O-])cc2)n1 | inconclusive: 22.4 µM [quencher, side channel, partial curve, poor fit] | –
31 | CC(=O)c1ccc(OCC(O)CN2CCN(Cc3ccc4c(c3)OCO4)CC2)cc1 (stereo not drawn) | inactive and inconclusive: 15.8 µM [quencher, side channel, partial curve] | –
32 | O=[N+]([O-])c1cnc(Nc2ccc(Cl)cn2)c([N+](=O)[O-])c1 | inconclusive: 2.51 µM [quencher, side channel, full curve] | –
33 | CCOc1ccccc1NC(=O)CNC(=O)Cc1ccccc1 | inactive | –
34 | CCn1c(Cc2ccccc2)nnc1SCC(=O)Nc1nc(C)cs1 | inconclusive: 63.1 µM [inhibitor, single point] | –
35 | Cn1c(=O)c2c(nc(NCc3ccco3)n2CC(O)CO)n(C)c1=O (stereo not drawn) | inactive | –
36 | Cc1ccc(-n2c(N)c(C#N)c(-c3ccccc3)c(C#N)c2=O)cc1 | inconclusive: 35.5 µM [fluorescent, side channel, single point] | –
37 | O=C(/C=C/c1ccccc1)Oc1cccc(C(=S)N2CCOCC2)c1 | inactive | –
38 | CCOC(=O)c1c(N2C(=O)Nc3ccccc3N2O)n[nH]c1-c1cccc(Cl)c1 | inconclusive: 79.4 µM [inhibitor, single point] | –
39 | O=C(CCS(=O)(=O)Cc1ccccc1)Nc1ncc([N+](=O)[O-])s1 | inconclusive: 3.16 µM [quencher, full curve] | –
40 | COc1cc(C(=O)n2cnc3ccccc32)c([N+](=O)[O-])cc1OC | inconclusive: 15.8 µM [quencher, side channel, partial curve] | –
41 | CC(Cc1cccs1)NC(=O)Nc1ccc([N+](=O)[O-])cc1 (stereo not drawn) | inconclusive: 31.6 µM [quencher, side channel, single point] | –
42 | Cc1ccc(N2C(=O)c3ccc(N)cc3C2=O)cc1 | inconclusive: 11.2 µM [quencher, side channel, partial curve] | –

Row | SMILES | Potency | activity change, negative = inhibition
43 | O=C(N/N=C/c1cccc2nccnc12)c1ccncc1 | inconclusive: 14.1 µM [quencher, side channel, partial curve] | –
44 | O=C(CN1C(=O)S/C(=C\c2ccccc2Cl)C1=O)NCCCn1ccnc1 | inconclusive: 17.8 µM [quencher, side channel, partial curve] | –
45 | Oc1cccc2ccc[n+](CC(O)Cn3c4ccccc4c4ccccc43)c12 (stereo not drawn) | inactive | –
46 | O=[N+]([O-])c1cc([N+](=O)[O-])c(N2CCOCC2)cc1NCc1ccccc1 | inconclusive: 25.1 µM [quencher, side channel, partial curve] | –
47 | O=C1c2ccccc2C(=O)N1c1ccccc1S(=O)C(F)(F)F (stereo not drawn) | inconclusive: 22.4 µM [quencher, single point] | –
48 | COc1ccc2no[n+]([O-])c2c1 | inconclusive: 15.8 µM [quencher, side channel, partial curve] | –
49 | COc1ccc(CCNC(=O)c2noc(C)c2[N+](=O)[O-])cc1OC | inconclusive: 15.8 µM [quencher, side channel, partial curve] | –
50 | O=C1c2ccc([N+](=O)[O-])cc2C(=O)N1Cc1cccnc1 | inconclusive: 8.91 µM [quencher, side channel, partial curve] | –
51 | O=C(c1ccc2c(c1)N(Cc1ccccc1)CCS2)N1CCCCC1 | inconclusive: 3.98 µM [quencher, side channel, full curve] | –
52 | Cc1ccc(C(=O)C2=C(O)C(=O)N(c3ncccn3)C2c2ccc(F)cc2)o1 (stereo not drawn) | inactive | –
53 | COc1cc(OC)c(CN2CCN(c3ccc(F)cc3)CC2)cc1Br | inactive | –
54 | COC(=O)Cc1cc(=O)oc2c(C)c(O)ccc12 | inconclusive: 39.8 µM [quencher, side channel, single point] | –
55 | O=C(Cc1ccc([N+](=O)[O-])cc1)OCc1c(F)cccc1Cl | inconclusive: 25.1 µM [quencher, side channel, single point] | –
56 | CCN(CC)CCCNC(=S)N(Cc1cccnc1)Cc1cc2cc(C)cc(C)c2[nH]c1=O | inconclusive: 28.2 µM [quencher, side channel, partial curve] | –
57 | O=C(O)c1cccc(Nc2ccc([N+](=O)[O-])c3nonc23)c1 | inconclusive: 15.8 µM [quencher, side channel, partial curve] | –
58 | C=CCN1C(=O)/C(=C2/Sc3ccc(OC)cc3N2C)SC1=Nc1ccccc1 | inactive | –
59 | CCOC(=O)C1CCCN(C(=O)c2ccccc2[N+](=O)[O-])C1 (stereo not drawn) | inconclusive: 20 µM [quencher, side channel, partial curve] | –
60 | Cc1ccc(/C=N/N2CCOCC2)s1 | inconclusive: 31.6 µM [quencher, side channel, single point] | –
61 | CCCCCCN1C=CC(=C/C=C(\C#N)C(=O)OCC)C=C1 | inconclusive: 10 µM [quencher, side channel, partial curve] | –
62 | CN1CC=C2C(C#N)=C(N)C(C#N)(C#N)[C@H](c3cccc(Cl)c3)C2C1 (stereo partly drawn) | inconclusive: 20 µM [quencher, side channel, partial curve] | –
63 | O=C(/C=C/c1cccc([N+](=O)[O-])c1)Nc1ccccc1N1CCOCC1 | inconclusive: 20 µM [quencher, side channel, partial curve] | –
